Test results from PMC4336329 (PLoS ONE, 2015).
About 2,200 (0.71%) of roughly 310,000 compounds showed an effect of 50% or more. Effects have a minus sign here. The list shows a part of the results.

These compounds were tested against human ether-à-go-go-related gene (hERG) potassium channel (human, UniProt Q12809) (assay: primary screen, population patch clamp on CHO cells stably expressing hERG).
human ether-à-go-go-related gene (hERG) potassium channel, sequence (Q12809 whole entry, looked up): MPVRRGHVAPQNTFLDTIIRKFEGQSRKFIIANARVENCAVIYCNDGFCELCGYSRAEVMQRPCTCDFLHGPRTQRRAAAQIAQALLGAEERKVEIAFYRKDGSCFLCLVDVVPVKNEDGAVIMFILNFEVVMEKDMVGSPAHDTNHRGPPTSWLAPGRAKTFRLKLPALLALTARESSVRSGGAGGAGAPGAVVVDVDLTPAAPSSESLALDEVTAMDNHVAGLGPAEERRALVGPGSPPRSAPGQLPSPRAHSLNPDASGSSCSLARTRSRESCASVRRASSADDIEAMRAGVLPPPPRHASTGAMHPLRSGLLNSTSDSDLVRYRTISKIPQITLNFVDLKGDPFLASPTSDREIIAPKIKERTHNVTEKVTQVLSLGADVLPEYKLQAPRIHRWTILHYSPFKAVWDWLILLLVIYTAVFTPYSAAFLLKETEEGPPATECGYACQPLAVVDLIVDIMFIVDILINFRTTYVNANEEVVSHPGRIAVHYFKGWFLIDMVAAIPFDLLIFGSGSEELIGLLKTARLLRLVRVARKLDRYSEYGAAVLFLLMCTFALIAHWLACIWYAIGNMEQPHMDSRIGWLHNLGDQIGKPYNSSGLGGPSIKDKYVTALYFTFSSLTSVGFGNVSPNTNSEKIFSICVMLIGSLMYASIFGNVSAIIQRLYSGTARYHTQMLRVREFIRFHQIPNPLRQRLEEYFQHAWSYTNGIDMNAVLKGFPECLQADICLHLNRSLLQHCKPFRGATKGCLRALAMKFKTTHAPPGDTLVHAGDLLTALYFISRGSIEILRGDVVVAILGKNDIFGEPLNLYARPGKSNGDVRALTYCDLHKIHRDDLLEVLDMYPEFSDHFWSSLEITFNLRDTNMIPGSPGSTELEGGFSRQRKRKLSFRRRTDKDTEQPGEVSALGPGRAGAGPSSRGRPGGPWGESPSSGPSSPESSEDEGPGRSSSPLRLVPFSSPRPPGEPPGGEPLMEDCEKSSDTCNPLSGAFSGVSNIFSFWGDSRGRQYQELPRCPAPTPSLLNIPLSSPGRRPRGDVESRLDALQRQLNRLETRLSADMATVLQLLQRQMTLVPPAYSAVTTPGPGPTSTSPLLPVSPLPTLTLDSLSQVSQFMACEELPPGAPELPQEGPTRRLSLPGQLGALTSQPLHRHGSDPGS
For CN(C)S(=O)(=O)c1ccc(C(=O)Nc2ccc(Cl)cc2)cc1, the “hERG current change (%, negative = inhibition) at 1uM” value was 8.1%. For Cc1occc1-c1nnc(SCC(=O)NC2CCCC2)n1-c1ccccc1, the “hERG current change (%, negative = inhibition) at 1uM” value was 0.492%. For CC1CN(S(=O)(=O)c2ccc(CN3C(=O)c4cccnc4C3=O)cc2)c2ccccc2O1 (stereo not drawn), the “hERG current change (%, negative = inhibition) at 1uM” value was 12.8%. With CCOC(=O)N1CCN(S(=O)(=O)c2ccc(F)c(C(=O)Nc3ccc(C(C)C)cc3)c2)CC1 the “hERG current change (%, negative = inhibition) at 1uM” value was -3.89%. For CCCS(=O)(=O)N1CCN(CCCc2ccccc2)CC1.O=C(O)C(=O)O, the “hERG current change (%, negative = inhibition) at 1uM” value was -1.25%. With COc1ccccc1CNC(=O)c1ccoc1C the “hERG current change (%, negative = inhibition) at 1uM” value was -1.81%. With CC(=O)Nc1ccc(C(=O)N2CCc3cc4c(cc3C2C)OCCCO4)cc1 (stereo not drawn) the “hERG current change (%, negative = inhibition) at 1uM” value was 10.5%. With COc1cccc(C(=O)NCC(=O)N/N=C/c2c(C)[nH]c3ccccc23)c1 the “hERG current change (%, negative = inhibition) at 1uM” value was 11.8%. In the case of CCNc1nc(NCC)nc(SCCOc2ccc(C)cc2)n1, the “hERG current change (%, negative = inhibition) at 1uM” value is reported as 3.98%. In the case of Cc1cccc(OCC(=O)OCC(=O)N2CCN(C(=O)c3ccco3)CC2)c1C, the “hERG current change (%, negative = inhibition) at 1uM” value is reported as -6.12%. In the case of O=C(O)c1ccccc1C(=O)OCc1c(-c2ccccc2)ncc2ccccc12, the “hERG current change (%, negative = inhibition) at 1uM” value is reported as 12.5%. For COC(=O)c1ccc(NC(=O)NC(=O)Oc2ccccc2)cc1, the “hERG current change (%, negative = inhibition) at 1uM” value was 3.44%. For COc1ccccc1-n1c(SCC(=O)Nc2ccc(C)cc2)nc(O)cc1=O, the “hERG current change (%, negative = inhibition) at 1uM” value was 15.7%. In the case of CCOC(=O)c1cnc2ccc(OCC)cc2c1NCc1cccnc1.Cl, the “hERG current change (%, negative = inhibition) at 1uM” value is reported as -75.3%. For CC(=O)Nc1ccc(NC(=O)CSc2nccn2Cc2ccco2)cc1, the “hERG current change (%, negative = inhibition) at 1uM” value was -14.7%. For CCN(CC)S(=O)(=O)c1ccc(C(=O)NCCc2ccccn2)cc1, the “hERG current change (%, negative = inhibition) at 1uM” value was 10.9%. With COc1cc(OC)c(OC)cc1CN(C)CCc1ccccn1.O=C(O)C(=O)O the “hERG current change (%, negative = inhibition) at 1uM” value was -1.06%. For CC(=O)CC(c1ccccc1)S(=O)(=O)c1ccc([N+](=O)[O-])cc1 (stereo not drawn), the “hERG current change (%, negative = inhibition) at 1uM” value was 15.5%. In the case of O=C1COc2ccc(C(=O)CCl)cc2N1, the “hERG current change (%, negative = inhibition) at 1uM” value is reported as 0.663%. O=C(OCC(=O)N1CCC(Cc2ccccc2)CC1)c1ccc(CO)cc1 was tested, and the “hERG current change (%, negative = inhibition) at 1uM” value was -5.29%. In the case of O=S(=O)([O-])C(c1ccccc1)[n+]1ccccc1 (stereo not drawn), the “hERG current change (%, negative = inhibition) at 1uM” value is reported as 10.6%. For O=c1ccc2cc(S(=O)(=O)Nc3ccc(Br)cc3)ccc2o1, the “hERG current change (%, negative = inhibition) at 1uM” value was 15.2%. In the case of CCCCn1c(N)c(N(CC(C)C)C(=O)C2CCN(S(=O)(=O)c3ccc(OCC)cc3)CC2)c(=O)[nH]c1=O, the “hERG current change (%, negative = inhibition) at 1uM” value is reported as 10.1%. For COc1cccc(CN2CCNC(=O)C2CC(=O)NCCc2cccc(C)n2)c1OC (stereo not drawn), the “hERG current change (%, negative = inhibition) at 1uM” value was 4.11%.
